Results reported in PubChem BioAssay AID1963576 (National Center for Advancing Translational Sciences (NCATS), 2024).
In all, about 46,000 compounds went through this assay and about 60 (0.1%) were called active. Another 3% or so got no clear call; they are omitted. The call rests on the fitted dose curve; in most records, active means well fitted inhibition curve with a large enough effect; inconclusive means small, poorly fitted or top-dose-only effect; inactive means no such curve, though single readings can be large or run the other way. Some of the results follow.

Experiment: Primary qHTS assay for Inhibitors of ovarian cancer metastasis using an organotypic tumor microenvironment (TME) model. Further: nearly all actives have a fitted effect of over 65% in size.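 On activity change, negative = inhibition: plate controls were DMSO wells for no effect and tomatine positive control wells for full effect.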
Details: SKOV3ip1-GFP adhesion/invasion on 3D omental model, fluorescence; series mostly up to 45.8 µM; activity change, negative = inhibition: at the top concentration
Method in brief: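 A 3D layer of primary human omental fibroblasts, mesothelial cells, fibronectin and collagen I, grown 48 hr, received SKOV3ip1-GFP cells in serum-free medium plus compounds at 0.36-46 umol/L. After 2 hr RT and 16 hr 37 C, fixed adherent GFP cells were counted; normalized to DMSO and tomatine.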

Activity change, negative = inhibition, inactive:
CCc1cccc(NC(=O)c2ccc(CN3C(=O)C(C)=C(c4ccc(OC)cc4)S3(=O)=O)cc2)c1 -3.49%, CCCOc1ccc(-c2nn(-c3ccccc3)cc2C2NC(=O)NC(C)=C2C(=O)OC)cc1C (stereo not given) -3.94%, CCOc1ccc(N2C(=O)N(Cc3ccc(C)cc3C)c3ccccc3S2(=O)=O)cc1 -6.87%, COc1ccccc1N1CCN(CC(O)COc2cc(C)cc(C)c2)CC1 (stereo not given) -2.39%, Cc1ccc(-c2cc(C(=O)NCCc3ccccc3)c3c(-c4ccc(C)cc4)[nH]nc3n2)cc1 -15%, CCn1cc(C(=O)N2CCN(c3cc(C)ccc3C)CC2)c(=O)c2cc(S(=O)(=O)N(C)C3CCCCC3)ccc21 19.4%, Cc1cccc(Nc2c3c(nc4nncn24)CCC3)c1 -4.41%, COc1ccc(-c2ccc3c(N)c(C(=O)Nc4cc(F)ccc4C)sc3n2)cc1 3.16%, O=c1c2ccccc2n(Cc2cccc(F)c2)c(=O)n1Cc1ccccc1Cl -8.71%, NC(=O)[C@@H](CCC(F)(F)F)N(Cc1ccc(-c2ncon2)cc1F)S(=O)(=O)c1ccc(Cl)cc1 -16.6%, Cc1cccc(NS(=O)(=O)c2ccc3c(c2)CCN3C(=O)CCC(=O)O)c1C 3.45%, CCN(c1ccccc1)S(=O)(=O)c1ccc(NC(=O)c2cc(=O)c3cc(C)c(C)cc3o2)cc1 -0.587%, Cc1ccc(NC(=O)CSc2nc3c([nH]c4ccccc43)c(=O)n2-c2ccccc2)c(C)c1 -7.53%, CCCCN1CCc2nc(N3CCN(c4ncccn4)CC3)ncc2C1 -0.0034%, CCOc1ccc(NC(=O)c2ccc(-c3ccccc3)s2)cc1 -0.471%, CCOc1ccc(C(=O)Nc2ccc3nc(SCc4ccccc4)sc3c2)cc1 9.68%, COc1ccc(S(=O)(=O)Nc2cc3c(cc2NCc2ccccc2)n(C)c(=O)n3C)cc1OC -5.05%, COc1cccc(-n2cc(C(=O)NCc3cccc(Cl)c3)c3ccccc3c2=O)c1 6.05%, Cc1cc(-c2nc3ncccc3o2)ccc1NC(=O)c1ccc(Br)cc1 -23.1%, Cc1cc(C)c(NC(=O)c2cc3c(=O)n4ccccc4nc3n2C)c(C)c1 9.44%, Cc1ccc2c(=O)cc(CSc3nnc(-c4ccccc4)n3C)[nH]c2c1C 10.1%, CC(C)c1ccc(S(=O)(=O)Nc2ccc3oc4c(c3c2)C(=O)CC(C)(C)C4)cc1 7.71%, COc1ccc(OCC(=O)NCC(c2ccc(Cl)cc2)N2CCCCC2)cc1 (stereo not given) 1.63%, CC(=O)N1c2ccccc2C(=O)C1N1CCN(c2ccccc2)CC1 (stereo not given) -8.59%, CSc1ccc(CNC(=O)c2ccccc2NC(=O)c2nsc3ccccc23)cc1 2.48%, CC(=O)Nc1ccc(S(=O)(=O)N2CCC(Oc3ccc(-n4cnnn4)cc3)CC2)cc1 -3.89%, COc1cc(OC)cc(-n2nnc(-c3nc(-c4ccccc4Cl)no3)c2N)c1 -0.159%, CC(=O)N1CCc2c(sc3c2c(=O)n(-c2ccccc2C)c(=O)n3Cc2cccc(F)c2)C1 0.319%, CC1CCN(C(=O)c2cnn(-c3cccc(Cl)c3)c2C2CCN(C(=O)OC(C)(C)C)CC2)CC1 0.852%, Cc1c(Cl)cccc1NC(=O)c1ccc(C(=O)Nc2cccc(Cl)c2C)cc1 -1.67%, COC(=O)c1scc(-c2ccccc2)c1S(=O)(=O)Nc1cccc(C)c1C -4.91%, CCCCOc1ccc(C(=O)N(Cc2ccc(C(C)C)cc2)C2CCS(=O)(=O)C2)cc1 (stereo not given) -18.8%, O=C(c1ccccc1Cl)n1nc(-c2cccnc2)nc1NCc1ccc(F)cc1 -1.88%, Cc1c(CNC(C)CCc2ccccc2)c(C(=O)O)c(C)n1Cc1ccc(F)cc1Cl (stereo not given) -7.21%, O=C(Nc1ccccc1-c1nc2ccccc2s1)c1cc(Cl)cc(Cl)c1 -8.38%, Cc1ccccc1Nc1c(-c2ccc(N3CCOCC3)cc2)nc2ncccn12 -4.84%, CN1CC(=O)NC1=NC(=O)Nc1cccc(Cl)c1 1.79%, COc1ccc(CN2COc3ccc4c(oc(=O)c5ccccc54)c3C2)cc1OC 4%, COC(=O)c1cc2sc(C)cc2n1Cc1ccc(Br)cc1F -7.76%, Cc1cc(C)c(NC(=O)CCc2c(C)nc3c(c(C)nn3C(C)(C)C)c2C)c(C)c1 -5.67%, COc1ccc(N2CCN(C3=NS(=O)(=O)C(c4cccc(Br)c4)=C3C)CC2)cc1 -0.741%, CCOC(=O)c1cccc(NC(=O)C2CCN(S(=O)(=O)c3cn(C)cn3)CC2)c1 -8.75%, Cc1ccc(C)c(NS(=O)(=O)c2cc3c(cc2Cl)NC(=O)CO3)c1 -1.48%, CCOC(=O)c1ccc(NC(=O)CC2C(=O)N(c3ccc(F)cc3)C(=O)N2Cc2ccc3c(c2)OCO3)cc1 (stereo not given) -7.84%, COc1ccc(C=Cc2cc(OC)c(OC)c(OC)c2)cc1O 27.1%, COCCNC(=O)C(=O)NCC(c1cccnc1)N1CCN(c2ccccc2F)CC1 (stereo not given) -3.1%, COc1ccccc1Nc1nc2ccc(Cl)cc2nc1-n1nc(C)cc1C -3.73%, COc1cc2ccccc2cc1C(=O)Nc1ccc2oc(-c3cccc(Cl)c3Cl)nc2c1 -2.43%, COCCCNc1ncnc2c1cnn2-c1ccc(F)cc1 -9.33%, CCc1ccc(NC(=O)N2CC(C)Oc3ccc(C)cc32)cc1 (stereo not given) -3.25%, Nc1nc(Nc2ccc(S(N)(=O)=O)cc2)nn1C(=O)c1c(F)cccc1F 23.6%, CCc1ccc(S(=O)(=O)c2nnn3c2nc(N2CCCC2)c2sccc23)cc1 -0.949%, COc1ccc(-n2cc(-c3ccccc3)nc2SCC(=O)Nc2ccccc2)cc1Cl -1.01%, CCCn1c(NCc2ccccc2C)nc2ccccc21 0.338%, COc1ccc(-c2cc(C(F)(F)F)n3nc(C(=O)Nc4cccc(Cl)c4C)cc3n2)cc1 1.54%, Cc1ccccc1C1C=C(c2ccc(Cl)cc2)Nc2nnnn21 (stereo not given) 9.53%, COc1ccc(NC(=O)COCc2cc(-c3cccs3)on2)cc1 -0.164%, Cc1nn(-c2ccc(N3CCCCC3)nn2)c(C)c1CCC(=O)NCc1ccccc1F -13.3%, COc1cc(C2c3c(oc4ccccc4c3=O)C(=O)N2c2nnc(C(C)C)s2)cc(OC)c1OC (stereo not given) 1.91%, CCOc1ccccc1CNC(=O)c1cc(-c2ccc(OC)cc2)nc2ccc(C(C)C)cc12 -6.5%, O=C(c1ccc2c(c1)N(Cc1ccccc1)C(=O)c1ccccc1S2(=O)=O)N1CCN(c2ccccn2)CC1 -1.42%, CCSc1ncc(Cl)c(C(=O)Nc2c(C(=O)Nc3ccc(Cl)cc3)oc3ccccc23)n1 6.98%, CCOc1ccc(OCC)c(NC(=O)CCc2c(C)nc3c(c2C)c(=O)n(C)c(=O)n3C)c1 -3.82%, COC(=O)c1ccccc1NC(=O)Cn1c(=O)n(-c2ccc(Cl)cc2)c(=O)c2c(C)c(C)sc21 -2.27%, Cc1ccc(Cn2ccn(Cc3ccccc3C)c(=O)c2=O)cc1 4.94%, CCOC(=O)c1cccc(NS(=O)(=O)c2cn(C)c(C)n2)c1 -3.94%, Cc1ccc(CN2CCN(CC(=O)NCc3ccccc3Cl)C2=O)cc1 -13.8%, COc1cc(NS(=O)(=O)c2ccc3c(c2)CCCN3C(C)=O)cc(OC)c1OC -7.84%, Cc1cc(C)cc(-n2nnc(-c3nc(-c4ccccc4F)no3)c2C)c1 9.09%, Cc1cc(C)n(-c2nc3ccccc3nc2Nc2cc(C(=O)O)ccc2C)n1 -3.43%, COc1ccc(C(=O)N2CCc3cc(OC)c(OC)cc3C2COc2ccc3c(C)cc(=O)oc3c2)c(OC)c1 (stereo not given) 1.19%, COc1ccc(NC(=O)c2sc3nc(C)c(C(=O)Nc4ccc(Cl)cc4)c(-c4ccc(Br)cc4)c3c2N)cc1 -6.92%, Cc1c(Cl)cccc1NC(=O)CCn1nc(C)c2c(C)n(-c3ccccc3)nc2c1=O 2.23%, CCOC(=O)c1ccc(NC(=O)c2ccc3c(c2)NC(=O)c2ccccc2S3)cc1 -2.75%, COC(=O)C(CCSC)NC(=O)c1c(C)oc2ncn(CC(C)C)c(=O)c12 (stereo not given) 10.4%, Cc1ccc(NC(=O)C(=O)NCC(c2cccnc2)N2CCN(C)CC2)cc1F (stereo not given) 19.5%, COc1cc2ccccc2cc1C(=O)Nc1ccc(Cl)c(-c2nc3ccccc3o2)c1 -42.7%

outcome, inactive:
COc1cccc(CNC(=O)CCCN2C(=O)CSc3c2c(C)nn3-c2ccccc2)c1, COc1ccccc1N1CCN(C(=O)Cn2c(=O)nc(-c3ccccc3)c3cc(Cl)ccc32)CC1, Cc1nc2c(-c3ccc(F)cc3)c(C)nn2c(C)c1CCC(=O)NCc1ccc(Cl)cc1, CCOC(=O)Cn1c(=O)n(C2CCCCC2)c2nc(-c3ccc(Cl)cc3)nc(C(N)=O)c21, COc1ccc(NC(=O)c2c(-c3ccccc3)c(-c3ccccc3)nn(C)c2=O)c(OC)c1, COCCCNC(=O)c1sc2nc(C)c(C(=O)Nc3ccc(C)cc3C)c(-c3ccc(Cl)cc3)c2c1N, COc1ccc(C2=NN(CC(=O)NCCCN(C)c3ccccc3)C(=O)CC2)cc1, CCOC(=O)c1ccc(NC(=O)CCc2c(C)nc3nc[nH]n3c2=O)cc1, COc1ccc(NC(=O)c2nc3nc(C)cc(C(F)F)n3n2)c(C)c1, COc1ccc(C2CC(=O)Nc3c2c(=O)[nH]c2nc4ccccc4n32)cc1OC (stereo not given), Cc1ccc2oc3c(c(=O)c2c1)C(c1ccc(F)cc1)N(c1nc(C)c(C)s1)C3=O (stereo not given), CCOC(=O)c1ccc(NC(=O)Cn2cnc(S(=O)(=O)N3CCCC3)c2)cc1, COc1ccc(/C=C/c2noc(-c3ccccc3O)n2)cc1OC, O=C(Nc1ccc(F)c(Cl)c1)c1cc(S(=O)(=O)N2CCCc3ccccc32)ccc1F, CCOc1ccccc1NC(=O)CN1C(=O)C2(SCC(=O)N2c2cccc(F)c2)c2ccccc21 (stereo not given), COc1ccc(S(=O)(=O)N(CC(=O)NCc2ccc(C)cc2)c2ccc(Cl)cc2)cc1, Cc1ccc(NC(=O)C(=O)NCC(c2cccnc2)N2CCc3ccccc32)cc1Cl (stereo not given), Cc1c(Cl)cccc1NC(=O)CSc1ncccc1C(=O)Oc1ccccc1Cl
